Data from the supplement of paper PMC3334620.
Whole data set: some 33,000 sequences, median “E-score (-0.5 to 0.5)” near -0.054, cut for the highest 2% near 0.39. The list shows a part of the results.

These sequences were tested against Ylr278c (UniProt Q05854) (assay: PBM E-score (8-mer binding enrichment) (E-score (-0.5 to 0.5)); higher = stronger / more preferred TF binding; most listed sequences are background and not binding sites). Settings: protein concentration: 200 nM; construct: GST-DNA-binding domain.
Experimental: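 Universal 'all 10-mer' protein binding microarrays (Agilent AMADID 015681) probed with GST-tagged S. cerevisiae TFs (full-length or DBD) made by in vitro transcription/translation (PURExpress), about 100-200 nM. Bound TF was detected with fluorescent anti-GST. Each ungapped 8-mer (which stands for itself and its reverse complement) is scored by the PBM enrichment score (E-score), a modified Wilcoxon-Mann-Whitney statistic from -0.5 to +0.5, computed with the Universal PBM Analysis Suite. Scale: above 0.35 generally sequence-specific binding.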

Sequence	PBM E-score
ATACTCGG	0.256
AAGAATAC	-0.172
GACAATTA	0.0117
ACGAGGCG	0.0264
CCGAGGAG	0.183
CGGAGTAG	0.465
AGATAGCT	-0.0406
ACTGTGTC	-0.0964
ACGAACAA	0.0893
AATTAGGG	0.0237
AGTGTAAC	-0.233
GCCACACA	0.0674
CACGCACA	-0.0318
GAAGAATA	-0.29
CGGGGACG	0.182
AGGGAGCC	-0.151
ACAATCAC	-0.119
CTGGCTAA	-0.123
CAATGGTA	-0.0688
GCAGGCGC	0.12
ATTCGAAC	-0.0636
GCGCACGC	0.154
TGGATGAA	-0.26
ACTTACGC	0.0924
CGCCCCCG	0.235

Sequence	PBM E-score
GACTCTGA	-0.0721
GTCGGGGA	0.329
AAGGCCCC	0.0357
ACAGGGCA	-0.233
GTCTTATA	-0.198
GGTATTCA	0.0137
CACCTGTC	0.0282
AGCACTCC	0.173
CAGATAAG	-0.287
CTGGAACA	-0.157
GCGCTGCA	0.0674
GTCCCGCA	0.163
CCCGCTGC	0.122
CGCGCTGC	-0.00693
AGTTGATA	-0.0704
AGTCACTC	-0.0686
GACTCACA	-0.248
CTGAACAG	-0.328
ACGCGAAA	-0.129
CTCGATCA	-0.0552
ATCTAGTC	0.0095
AAAACTGT	-0.113
AAACTTAC	-0.0868
AGCTAAAC	-0.148
CGTCCTCC	0.266

Sequence	PBM E-score
CGTTATGA	-0.0212
AGAGTCGA	-0.075
CTGACGAA	-0.091
ATGGGATC	-0.0567
CCCCACCA	-0.0198
GCACTGCA	-0.187
GACGCTAA	-0.142
AGCAAACC	0.042
ACGGTCCC	0.0472
CGGTCACG	0.0783
GCCGGCTA	0.301
CAGATCGC	0.0639
AGCGGGAG	0.1
ATATCCCC	0.1
GGGTCACC	-0.16
AGGGCTAC	-0.248
AGCAGCTC	-0.134
ATGGGTCC	0.169
CTTGGTCA	-0.13
GCACGCTA	-0.112
CGCTCATC	-0.055
GCGGAAGA	0.301
ATTAGGTG	-0.123
ACAGCTAA	-0.27
GAACAAGC	-0.0964

Sequence	PBM E-score
ATCATTAG	-0.139
GAAAAGCC	0.228
ATCATACA	-0.157
ACCTGGTA	-0.175
TATGGGCA	-0.266
CGCGTGTC	0.184
TGTTTAAA	-0.18
GCGGCCCC	0.248
AGGTCAGG	-0.184
ATCTGGAC	-0.0422
GGATTTCA	0.338
ATTTTAGC	0.0334
CAAAAGTG	-0.201
CGCTGTCC	0.155
GAGACTCC	0.249
AGGAGAGA	-0.136
GTCAAGTA	-0.367
AAAGAGTG	-0.158
CACTGCGC	-0.0411
GTCCACTA	-0.213
AGTAAAAG	0.043
CGAAAGTC	0.119
AACCCAGG	-0.176
AGTCGGTA	0.0614
ATTGCGAA	-0.0455

Sequence	PBM E-score
TGGAAGAA	-0.0236
ATCATGCC	-0.0981
ACTCTACC	-0.0553
GGTGGTAA	0.119
ATAATTAG	0.0427
ACCATGTG	-0.217
TCCCATCA	-0.249
AAAGCGTC	-0.246
GCGTGGAA	0.0269
GTACAAAC	-0.077
GGCATGTA	-0.101
TATGGTAA	-0.1
GTAAGAAA	-0.0755
CATCCACC	-0.00135
CCAGACCG	0.101
CATAACCA	-0.135
GTGAGTCA	-0.275
ATTAGTGA	0.0356
AACGAGTC	-0.0798
AGCATTGG	-0.0978
AGCCTCGC	-0.236
AGCCCGGC	0.332
AAAGTACT	-0.19
CCCACAGC	-0.298
AACTCGGT	0.00153

Sequence	PBM E-score
AATGAAAT	0.0722
TCTCTGAA	-0.172
GCTCTACC	-0.18
AAAAAGAA	0.0922
AGTATCCC	-0.0714
AACATTGT	0.024
ACATGATG	-0.173
AATTACGG	0.228
ATAGAATC	-0.0193
GTTTTTAA	-0.0406
AACCCATA	-0.0881
ACCCCTCG	-0.12
GCTCCACC	-0.071
AGCTCAAC	-0.0522
AGTGACTG	-0.247
ACCGTCGG	0.312
ATCGCCGG	0.421
AGTGCTGC	-0.113
CAGTTATC	-0.00584
AAAATCTA	-0.138
AAACTCTA	-0.11
CAGGTTAA	-0.192
CTATGAGA	-0.19
ACGAGAGA	-0.101
ATGATGGC	-0.0336

Sequence	PBM E-score
AGCTACAA	0.0768
AGCGGCCA	0.0573
CGATCCCC	0.174
AAAATAGA	0.117
ATTCAGTC	-0.0768
AAATCACA	-0.104
GATGCTAC	-0.144
CCCGTGCC	0.157
TATAGTAA	-0.0256
CCCCCCTC	-0.42
TAGTACGA	-0.0816
CGAGTCGC	-0.0111
AAGCGCAT	-0.0934
ACCAATTA	-0.0992
GACAACAC	-0.0996
TCCCGCAA	0.177
CGTGACGA	-0.00725
ACACTACA	-0.117
ACGGAGGC	0.302
GGAGTTGA	0.241
GATCACGC	0.0827
TATTACCA	-0.0747
CTCCTAGC	-0.174
ACGAATAG	-0.259
CCAGTAGG	-0.101

Sequence	PBM E-score
ACTCTCCG	0.405
ACCCACTG	-0.0317
CAGTACCC	-0.127
ACCTAAAA	-0.0992
GGCGTTCA	0.0988
GCGGTAGA	0.00437
TATACAGA	-0.184
CGCATACA	-0.0291
ACTCTTAT	-0.0467
TCAGGACA	-0.105
CGCGTCTC	0.0846
CATCGCAC	-0.00832
GACCGTTA	0.041
GCGGAATA	0.396
GCATGAAC	0.0795
CGGCGTTC	0.378
CCTAGTAG	-0.189
ATTGATAA	-0.165
CCCGACGA	0.213
CCTGGTAA	-0.087
CAAGACGG	0.063
ACCGAATA	-0.0947
GTCCCGGA	0.439
ACCATCGT	-0.0578
CAGATGGG	-0.172

Sequence	PBM E-score
CACCATGC	-0.0733
AGCACAAA	0.0198
GAGTTTTA	0.139
ACACATAA	-0.0281
CCCCTTAA	-0.112
TCTCGGCA	0.266
TCACGCGA	0.00133
AACGGGAG	0.157
GCACGCAC	-0.152
GCGGGACC	0.216
GAGCTTTA	-0.0266
TAGACGGA	0.289
AAGCTGCT	-0.182
ACACGTAG	-0.231
CCTCGAGA	-0.193
ACCTCACT	-0.138
GAGGCTTA	-0.0425
CGCAGTCC	0.0402
CTTCCAAC	-0.0646
